By IC50 is meant the dose at which the fit gives 50% viability; where the fit passes the top or lowest dose, that dose stands as a limit. For AUC the same curve is integrated over the 256-fold range of doses and scaled to a fraction; values near 1 show little effect. A top dose marked as inferred was derived from the fitted curves, not read from the paper.
Key:
Experiment in all cases: Viability of human cancer cell lines after 72 h of drug (GDSC screen)
CCT007093 = compound: O=C1/C(=C/c2cccs2)CC/C1=C\c1cccs1 [CCT007093]; details: top dose 6.6 µM; top dose inferred
Method: (§1)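 Human cancer cell lines in 384-well plates, medium with 10% serum, drug for 72 h over a 256-fold dose range (nine 2-fold or five 4-fold steps up to the top dose). Adherent lines were fixed and stained with the nucleic acid dye Syto60, suspension lines read with resazurin; signal relative to control wells, capped at 0 and 100%. One two-parameter sigmoid per drug and line, fitted in a mixed model over all curves with the slope shared within a line.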

QL-XII-47 = compound: C=CC(=O)N1CCc2ccc(-n3c(=O)ccc4cnc5ccc(-c6cnn(C)c6)cc5c43)cc21 [QL-XII-47]; details: top dose 10.24 µM; top dose inferred
Method: as §1

KIN001-266 = compound: CCN1CCC(n2cc(CNc3cc(Cl)c4ncc(C#N)c(Nc5ccc(F)c(Cl)c5)c4c3)nn2)CC1 [KIN001-266]; details: top dose 20 µM; top dose inferred
Method: as §1

BAY 61-3606 = compound: COc1ccc(-c2cc3nccn3c(Nc3ncccc3C(N)=O)n2)cc1OC [BAY 61-3606]; details: top dose 8 µM; top dose inferred
Method: as §1

Cell Line | AUC (CCT007093) | IC50 (CCT007093) | AUC (QL-XII-47) | IC50 (QL-XII-47) | AUC (KIN001-266) | IC50 (KIN001-266) | AUC (BAY 61-3606) | IC50 (BAY 61-3606)
NCI-H2170 (lung squamous cell carcinoma, adherent) | 0.985 | > 6.6 µM | 0.968 | > 10.2 µM | 0.974 | > 20 µM | 0.835 | 5.58 µM
HCC1806 (breast, adherent) | 0.989 | > 6.6 µM | 0.922 | > 10.2 µM | 0.849 | 13.2 µM | 0.918 | > 8 µM
MOLM-13 (acute myeloid leukaemia, suspension) | 0.979 | > 6.6 µM | 0.459 | 0.499 µM | 0.865 | 15.8 µM | 0.279 | 0.124 µM
GI-1 (glioma, adherent) | 0.982 | > 6.6 µM | 0.684 | 2.04 µM | 0.87 | 17.3 µM | 0.846 | 5.47 µM
HCC38 (breast, adherent) | 0.983 | > 6.6 µM | 0.85 | 8.75 µM | 0.849 | 16.8 µM | 0.968 | > 8 µM
MONO-MAC-6 (acute myeloid leukaemia, suspension) | 0.981 | > 6.6 µM | 0.577 | 1.05 µM | 0.861 | 18.6 µM | 0.617 | 1.07 µM
SW1088 (glioma, adherent) | 0.981 | > 6.6 µM | 0.901 | > 10.2 µM | 0.949 | > 20 µM | 0.982 | > 8 µM
TOV-21G (ovary, adherent) | 0.945 | > 6.6 µM | 0.376 | 0.283 µM | 0.985 | > 20 µM | 0.956 | > 8 µM
L-1236 (Hodgkin lymphoma, suspension) | 0.99 | > 6.6 µM | 0.973 | > 10.2 µM | 0.889 | 16.6 µM | 0.98 | > 8 µM
NCI-H292 (lung adenocarcinoma, adherent) | 0.876 | > 6.6 µM | 0.878 | > 10.2 µM | 0.745 | 7.48 µM | 0.898 | > 8 µM
EN (endometrium, adherent) | 0.982 | > 6.6 µM | 0.887 | > 10.2 µM | 0.87 | > 20 µM | 0.89 | > 8 µM
SW1573 (lung adenocarcinoma, adherent) | 0.963 | > 6.6 µM | 0.921 | > 10.2 µM | 0.973 | > 20 µM | 0.921 | > 8 µM
KNS-42 (glioma, adherent) | 0.967 | > 6.6 µM | 0.899 | > 10.2 µM | 0.847 | 19.2 µM | 0.875 | > 8 µM
ASH-3 (thyroid, adherent) | 0.984 | > 6.6 µM | 0.654 | 1.71 µM | 0.981 | > 20 µM | 0.577 | 0.814 µM
PL18 (pancreas, adherent) | 0.982 | > 6.6 µM | 0.853 | 7.93 µM | 0.879 | > 20 µM | 0.952 | > 8 µM
KARPAS-620 (haematopoietic neoplasm, suspension) | 0.991 | > 6.6 µM | 0.539 | 0.804 µM | 0.869 | 14.1 µM | 0.759 | 2.43 µM
OVCAR-4 (ovary, adherent) | 0.969 | > 6.6 µM | 0.817 | 9.8 µM | 0.868 | > 20 µM | 0.905 | > 8 µM
OS-RC-2 (kidney, adherent) | 0.975 | > 6.6 µM | 0.693 | 2.86 µM | 0.817 | 18.3 µM | 0.636 | 1.41 µM
42-MG-BA (glioma, adherent) | 0.955 | > 6.6 µM | 0.898 | > 10.2 µM | 0.861 | 18.8 µM | 0.816 | 4.84 µM
KG-1 (acute myeloid leukaemia, suspension) | 0.99 | > 6.6 µM | 0.833 | 5.63 µM | 0.874 | 15.9 µM | 0.792 | 3.21 µM
LB2241-RCC (kidney, adherent) | 0.975 | > 6.6 µM | 0.984 | > 10.2 µM | 0.965 | > 20 µM | 0.796 | 4.27 µM
NCI-H1869 (lung squamous cell carcinoma, adherent) | 0.985 | > 6.6 µM | 0.887 | > 10.2 µM | 0.904 | > 20 µM | 0.876 | > 8 µM
KALS-1 (glioma, adherent) | 0.965 | > 6.6 µM | 0.699 | 2.89 µM | 0.855 | > 20 µM | 0.879 | > 8 µM
SW626 (ovary, adherent) | 0.984 | > 6.6 µM | 0.39 | 0.301 µM | 0.817 | 13.9 µM | 0.954 | > 8 µM
SUP-M2 (anaplastic large cell lymphoma, suspension) | 0.99 | > 6.6 µM | 0.37 | 0.307 µM | 0.899 | 14.6 µM | 0.705 | 1.6 µM
COLO-684 (endometrium, suspension) | 0.975 | > 6.6 µM | 0.512 | 0.693 µM | 0.867 | > 20 µM | 0.798 | 4.35 µM
ES6 (Ewing sarcoma, adherent) | 0.974 | > 6.6 µM | 0.475 | 0.538 µM | 0.84 | 18.8 µM | 0.642 | 1.36 µM
HDLM-2 (Hodgkin lymphoma, suspension) | 0.979 | > 6.6 µM | 0.834 | 6.52 µM | 0.984 | > 20 µM | 0.868 | 7.09 µM
Capan-2 (pancreas, adherent) | 0.983 | > 6.6 µM | 0.921 | > 10.2 µM | 0.905 | > 20 µM | 0.954 | > 8 µM
NCI-H1793 (lung adenocarcinoma, adherent) | 0.967 | > 6.6 µM | 0.928 | > 10.2 µM | 0.962 | > 20 µM | 0.981 | > 8 µM
